Measured values: publication PMC8468037, “Dimerization of Human Angiogenin and of Variants Involved in Neurodegenerative Diseases” (International Journal of Molecular Sciences, 2021)

B1: S28N-ANG (human angiogenin variant S28N) (enzyme)
chain: not shown
notes: Human angiogenin, 123 residue protein with S28N, pathogenic variant found in ALS and PD patients; theoretical MW 14,148; Made by site-directed mutagenesis of the wt-ANG cDNA; also called S28N-D (its dimer)
B2: R121C-ANG (human angiogenin variant R121C) (enzyme)
chain: not shown
notes: Human angiogenin, 123 residue protein with R121C, pathogenic variant found in ALS and PD patients; theoretical MW 14,068; Made by site-directed mutagenesis of the wt-ANG cDNA; also called R121C-D (its dimer); R121G-ANG (printed once in the discussion)

Target: the molecule itself
Experiment: SEC; protein lyophilized from 40% HAc (about 25 mg/mL), powder solubilized in 0.40 M NaPi, pH 6.7; Superdex 75 Increase 10/300 in 0.40 M NaPi, pH 6.7; dimer extent = peak area vs. total area eluted

Row | Protein | stoichiometry N
1 | B1 | 1.91
2 | B2 | 1.92
